In PMC9262947:
Positions count from the first letter of the chain named. No constants are given. Whether binding was seen depends on the method and setting. Some binding calls cover weakened binding; strength is not graded here. For some assays here: Sequences can lack the tags named with a protein.

Amino acid sequences for entries named in this document (tags omitted).
UniProt P0AEZ3: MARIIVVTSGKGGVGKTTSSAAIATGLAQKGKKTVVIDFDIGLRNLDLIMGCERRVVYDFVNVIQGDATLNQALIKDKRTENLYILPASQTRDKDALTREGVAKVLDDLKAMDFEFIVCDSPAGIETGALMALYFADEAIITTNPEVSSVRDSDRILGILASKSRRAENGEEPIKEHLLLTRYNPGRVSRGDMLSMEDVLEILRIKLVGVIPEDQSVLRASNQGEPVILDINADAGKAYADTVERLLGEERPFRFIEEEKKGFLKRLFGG
UniProt P0A9A6: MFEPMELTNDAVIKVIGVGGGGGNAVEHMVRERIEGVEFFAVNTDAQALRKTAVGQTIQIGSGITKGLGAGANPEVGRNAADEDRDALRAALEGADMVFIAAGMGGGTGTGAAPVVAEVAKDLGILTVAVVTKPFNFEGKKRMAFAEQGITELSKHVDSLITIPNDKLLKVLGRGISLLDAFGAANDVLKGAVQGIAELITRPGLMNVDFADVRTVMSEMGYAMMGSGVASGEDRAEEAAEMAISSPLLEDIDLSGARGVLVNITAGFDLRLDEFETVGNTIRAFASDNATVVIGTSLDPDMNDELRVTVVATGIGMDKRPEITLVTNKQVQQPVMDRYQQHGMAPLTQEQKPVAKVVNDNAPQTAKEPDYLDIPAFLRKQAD

What was measured:
[1] = target: T1, eGFP-MinC (fusion between the enhanced green fluorescent protein and MinC) (E. coli) (UniProt P18196); experiment: recruitment to a supported lipid bilayer, fluorescence microscopy; MinD and MinE pre-expressed in PUREfrex2.0 from the bi-cistronic template (no FtsA), supplemented with 0.5 µM purified eGFP-MinC, 3 µM purified FtsZ-A647, 2 mM GTP, 2.5 mM ATP, on a DOPC/DOPG bilayer, imaged at 37 °C; both purified
T1 sequence: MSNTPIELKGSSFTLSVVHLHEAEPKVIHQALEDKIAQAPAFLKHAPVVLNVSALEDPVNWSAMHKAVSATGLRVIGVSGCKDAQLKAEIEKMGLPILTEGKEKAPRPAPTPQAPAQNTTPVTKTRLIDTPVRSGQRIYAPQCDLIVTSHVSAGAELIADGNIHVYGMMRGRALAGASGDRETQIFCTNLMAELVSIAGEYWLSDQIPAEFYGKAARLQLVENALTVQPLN

[2] = target: T2, FtsA (E. coli) (UniProt P0ABH0); experiment: recruitment to a supported lipid bilayer, fluorescence microscopy; anchor or Min proteins pre-expressed in PUREfrex2.0 with DnaK mix (3 h, 37 °C), supplemented with 3 µM purified FtsZ-A647, 2 mM GTP, 2.5 mM ATP and eGFP-MinC (0.5 µM) or eGFP-MinD (100 nM), on a DOPC/DOPG bilayer, imaged at 37 °C; only the binder purified
T2 sequence: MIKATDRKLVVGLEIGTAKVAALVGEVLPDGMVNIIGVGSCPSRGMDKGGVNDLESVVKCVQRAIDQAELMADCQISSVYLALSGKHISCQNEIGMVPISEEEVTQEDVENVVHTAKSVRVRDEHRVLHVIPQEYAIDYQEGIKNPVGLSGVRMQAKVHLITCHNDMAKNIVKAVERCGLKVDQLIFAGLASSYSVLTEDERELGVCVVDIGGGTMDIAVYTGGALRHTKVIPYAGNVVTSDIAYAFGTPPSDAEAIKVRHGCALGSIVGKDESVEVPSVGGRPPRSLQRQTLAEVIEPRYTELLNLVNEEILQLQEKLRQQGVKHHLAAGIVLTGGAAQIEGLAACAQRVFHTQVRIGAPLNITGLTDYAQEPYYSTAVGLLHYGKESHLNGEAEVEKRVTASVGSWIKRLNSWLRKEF

[3] = target: T3, FtsA(R286W) (E. coli) (UniProt P0ABH0); experiment: as above
T3 sequence: T2 sequence with R286W

[4] = target: MinD (E. coli) (UniProt P0AEZ3); experiment: as above
[5] = target: MinE (E. coli) (UniProt P0A734); experiment: as above

- binding [1]: binds weakly
- binding [2]: binds
- binding [3]: binds
- binding [4]: no binding (tested: 3 µM FtsZ-A647)
- binding [5]: no binding (tested: 3 µM FtsZ-A647)
Substance: FtsZ conjugated to the AlexaFluor647 fluorophore (from UniProt P0A9A6 1-383)
